The source of these data is PMC4016566.

By UniProt entry, the sequences of proteins in these tests, tags left out. Residues count along the entry.
UniProt Q15788: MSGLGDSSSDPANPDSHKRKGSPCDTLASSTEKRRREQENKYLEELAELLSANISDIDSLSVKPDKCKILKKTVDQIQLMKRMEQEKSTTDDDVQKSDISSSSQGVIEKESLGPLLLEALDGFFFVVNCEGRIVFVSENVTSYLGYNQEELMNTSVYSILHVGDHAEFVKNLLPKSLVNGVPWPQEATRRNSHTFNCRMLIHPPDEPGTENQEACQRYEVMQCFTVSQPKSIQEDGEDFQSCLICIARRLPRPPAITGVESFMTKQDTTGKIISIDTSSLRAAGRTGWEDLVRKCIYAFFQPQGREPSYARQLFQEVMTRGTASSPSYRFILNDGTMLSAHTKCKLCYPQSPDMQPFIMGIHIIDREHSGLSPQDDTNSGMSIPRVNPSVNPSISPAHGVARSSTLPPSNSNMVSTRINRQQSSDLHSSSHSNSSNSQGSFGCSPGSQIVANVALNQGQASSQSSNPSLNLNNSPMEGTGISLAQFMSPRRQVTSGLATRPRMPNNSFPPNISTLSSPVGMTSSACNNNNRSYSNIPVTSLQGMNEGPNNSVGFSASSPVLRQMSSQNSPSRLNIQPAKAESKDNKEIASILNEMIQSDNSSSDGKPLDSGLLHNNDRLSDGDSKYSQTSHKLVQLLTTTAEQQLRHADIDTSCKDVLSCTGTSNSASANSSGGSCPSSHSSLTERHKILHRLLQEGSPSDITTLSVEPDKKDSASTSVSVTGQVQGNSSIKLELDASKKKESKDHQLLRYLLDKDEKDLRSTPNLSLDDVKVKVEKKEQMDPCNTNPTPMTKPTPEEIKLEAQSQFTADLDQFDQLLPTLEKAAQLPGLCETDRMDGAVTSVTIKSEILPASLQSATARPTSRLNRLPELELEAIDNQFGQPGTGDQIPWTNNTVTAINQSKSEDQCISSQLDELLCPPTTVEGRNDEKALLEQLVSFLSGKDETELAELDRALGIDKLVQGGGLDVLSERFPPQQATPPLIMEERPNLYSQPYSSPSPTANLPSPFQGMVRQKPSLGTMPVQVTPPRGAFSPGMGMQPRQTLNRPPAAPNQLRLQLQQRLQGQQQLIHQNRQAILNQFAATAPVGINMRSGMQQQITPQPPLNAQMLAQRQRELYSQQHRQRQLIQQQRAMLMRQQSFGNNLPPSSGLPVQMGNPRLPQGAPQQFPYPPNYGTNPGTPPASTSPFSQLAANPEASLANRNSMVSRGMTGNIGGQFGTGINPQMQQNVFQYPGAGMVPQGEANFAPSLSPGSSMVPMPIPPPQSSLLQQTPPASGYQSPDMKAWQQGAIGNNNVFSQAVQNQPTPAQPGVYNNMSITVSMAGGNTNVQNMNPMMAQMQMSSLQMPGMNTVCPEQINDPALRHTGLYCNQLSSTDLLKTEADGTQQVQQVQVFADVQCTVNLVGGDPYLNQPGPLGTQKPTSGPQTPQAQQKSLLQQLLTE
UniProt P63165, residues 1-97: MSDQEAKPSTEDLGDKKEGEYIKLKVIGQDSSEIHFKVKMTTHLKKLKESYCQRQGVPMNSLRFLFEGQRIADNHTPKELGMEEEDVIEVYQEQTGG
UniProt P10275: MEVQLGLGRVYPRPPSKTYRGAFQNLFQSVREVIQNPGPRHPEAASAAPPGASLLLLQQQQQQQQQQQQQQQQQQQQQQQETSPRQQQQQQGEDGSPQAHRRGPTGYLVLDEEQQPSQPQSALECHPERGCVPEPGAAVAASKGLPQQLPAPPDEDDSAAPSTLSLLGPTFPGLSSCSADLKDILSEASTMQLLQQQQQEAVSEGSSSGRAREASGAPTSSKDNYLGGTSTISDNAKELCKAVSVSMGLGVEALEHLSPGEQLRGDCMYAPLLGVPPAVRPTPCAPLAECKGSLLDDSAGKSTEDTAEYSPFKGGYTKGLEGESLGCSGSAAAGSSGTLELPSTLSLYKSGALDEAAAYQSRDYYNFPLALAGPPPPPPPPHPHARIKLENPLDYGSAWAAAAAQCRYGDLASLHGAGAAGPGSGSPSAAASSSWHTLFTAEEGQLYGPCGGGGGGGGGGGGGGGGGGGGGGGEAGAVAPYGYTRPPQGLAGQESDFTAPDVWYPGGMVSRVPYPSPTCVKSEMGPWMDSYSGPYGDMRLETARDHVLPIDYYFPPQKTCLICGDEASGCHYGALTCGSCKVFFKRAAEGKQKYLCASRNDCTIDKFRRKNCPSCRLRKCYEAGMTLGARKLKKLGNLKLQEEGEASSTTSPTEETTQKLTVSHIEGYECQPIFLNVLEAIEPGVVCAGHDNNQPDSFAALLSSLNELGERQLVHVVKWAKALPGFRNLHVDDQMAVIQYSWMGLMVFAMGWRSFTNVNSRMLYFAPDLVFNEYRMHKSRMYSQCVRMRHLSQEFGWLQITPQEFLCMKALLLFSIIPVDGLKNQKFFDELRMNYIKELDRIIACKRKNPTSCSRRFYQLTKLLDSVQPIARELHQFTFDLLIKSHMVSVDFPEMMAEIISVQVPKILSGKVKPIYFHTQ
UniProt P03372: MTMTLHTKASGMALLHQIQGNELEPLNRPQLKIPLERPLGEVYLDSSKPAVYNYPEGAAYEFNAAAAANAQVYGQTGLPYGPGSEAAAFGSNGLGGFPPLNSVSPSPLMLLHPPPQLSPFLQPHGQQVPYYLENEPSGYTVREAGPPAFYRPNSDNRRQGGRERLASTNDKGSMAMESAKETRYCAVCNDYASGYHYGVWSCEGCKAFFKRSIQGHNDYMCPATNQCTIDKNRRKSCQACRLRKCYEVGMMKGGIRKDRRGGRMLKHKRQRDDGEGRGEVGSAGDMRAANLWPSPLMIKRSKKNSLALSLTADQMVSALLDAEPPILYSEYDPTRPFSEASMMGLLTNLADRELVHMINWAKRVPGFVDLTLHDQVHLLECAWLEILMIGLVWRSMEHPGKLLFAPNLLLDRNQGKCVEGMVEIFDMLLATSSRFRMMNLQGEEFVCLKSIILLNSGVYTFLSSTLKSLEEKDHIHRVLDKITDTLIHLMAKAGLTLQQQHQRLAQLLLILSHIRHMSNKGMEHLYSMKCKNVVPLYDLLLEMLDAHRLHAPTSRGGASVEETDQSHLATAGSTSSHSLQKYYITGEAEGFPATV

Results are given in words; binding and its absence hold for the method and conditions named. For some of these results: In cells and extracts the contact can be indirect. Some binding calls cover weakened binding; strength is not graded here.

Experiment [1] concerns the target T1, nuclear receptor coactivator 5 (human (endogenous in SH-SY5Y)) (UniProt Q9HCD5).
T1 sequence: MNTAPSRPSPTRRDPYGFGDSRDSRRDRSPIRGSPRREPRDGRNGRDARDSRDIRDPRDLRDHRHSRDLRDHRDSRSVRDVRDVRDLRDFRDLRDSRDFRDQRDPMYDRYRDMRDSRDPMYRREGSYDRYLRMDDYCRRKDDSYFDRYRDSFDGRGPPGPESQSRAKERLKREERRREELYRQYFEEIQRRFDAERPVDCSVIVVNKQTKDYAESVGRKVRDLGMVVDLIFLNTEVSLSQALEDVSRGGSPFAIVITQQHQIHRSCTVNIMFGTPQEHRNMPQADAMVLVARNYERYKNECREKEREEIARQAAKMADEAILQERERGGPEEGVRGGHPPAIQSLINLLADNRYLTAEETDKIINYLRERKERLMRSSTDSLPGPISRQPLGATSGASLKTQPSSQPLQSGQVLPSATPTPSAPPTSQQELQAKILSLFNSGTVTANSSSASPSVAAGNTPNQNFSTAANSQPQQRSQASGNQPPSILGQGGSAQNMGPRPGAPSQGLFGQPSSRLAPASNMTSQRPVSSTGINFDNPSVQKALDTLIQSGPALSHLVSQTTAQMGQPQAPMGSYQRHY
Briefly: co-IP; SH-SY5Y whole-cell lysate incubated overnight at 4°C with Protein A/G magnetic beads cross-linked (disuccinimidyl suberate) to anti-NCOA1, anti-NCOA5, anti-SUMO1, anti-FHL2 or nonspecific IgG; western blot for AR (cells treated with 1 nM DHT, 2 h), ERα (1 nM E2, 2 h) or RORA. A general note: A western blot detects proteins with antibodies after separation by electrophoresis.

The target in experiment [2] is nuclear receptor coactivator 1 (human (endogenous in SH-SY5Y)) (UniProt Q15788). Described as above.
Experiment [3] has as its target T2, four and a half LIM domains 2 (human (endogenous in SH-SY5Y)) (UniProt Q14192).
T2 sequence: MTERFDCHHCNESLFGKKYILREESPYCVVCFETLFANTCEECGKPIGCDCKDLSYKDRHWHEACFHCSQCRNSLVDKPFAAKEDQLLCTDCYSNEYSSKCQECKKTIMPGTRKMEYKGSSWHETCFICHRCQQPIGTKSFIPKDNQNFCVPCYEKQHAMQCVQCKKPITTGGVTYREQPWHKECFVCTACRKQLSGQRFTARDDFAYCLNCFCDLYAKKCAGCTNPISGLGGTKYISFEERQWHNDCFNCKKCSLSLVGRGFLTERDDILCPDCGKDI
Described as above.

The target of experiment [4] is T1, nuclear receptor coactivator 5 (human (endogenous in SH-SY5Y)). Put plainly: sequential chromatin immunoprecipitation (ChIP-reChIP); formaldehyde-fixed, enzymatically sheared SH-SY5Y chromatin (150 to 1,000 bp); first IP with anti-AR (1 nM DHT), anti-ERα (1 nM E2) or anti-RORA, second IP with anti-NCOA1, anti-NCOA5, anti-SUMO1 or anti-FHL2; qPCR or PCR of receptor binding sites in the RORA or CYP19A1 promoter. A general note: In qPCR the cycle at which signal appears reflects the starting amount.

In experiment [5] the target is T2, four and a half LIM domains 2 (human (endogenous in SH-SY5Y)). Described as above.
Experiment [6] has as its target T1, nuclear receptor coactivator 5 (human (endogenous in SH-SY5Y)). Briefly: co-IP; SH-SY5Y whole-cell lysate incubated overnight at 4°C with Protein A/G magnetic beads cross-linked (disuccinimidyl suberate) to anti-NCOA1, anti-NCOA5, anti-SUMO1, anti-FHL2 or nonspecific IgG; western blot for AR (cells treated with 1 nM DHT, 2 h), ERα (1 nM E2, 2 h) or RORA. The source holds these as a separate data set.

Experiment [7] concerns the target SUMO1 (SMT3 suppressor of mif two 3 homolog 1) (human (endogenous in SH-SY5Y)) (UniProt P63165). The experiment is described as above.
Experiment [8] addresses T2, four and a half LIM domains 2 (human (endogenous in SH-SY5Y)). The description is as above. The source holds these as a separate data set.
In experiment [9] the target is T1, nuclear receptor coactivator 5 (human (endogenous in SH-SY5Y)). Briefly: sequential chromatin immunoprecipitation (ChIP-reChIP); formaldehyde-fixed, enzymatically sheared SH-SY5Y chromatin (150 to 1,000 bp); first IP with anti-AR (1 nM DHT), anti-ERα (1 nM E2) or anti-RORA, second IP with anti-NCOA1, anti-NCOA5, anti-SUMO1 or anti-FHL2; qPCR or PCR of receptor binding sites in the RORA or CYP19A1 promoter. This is another data set of the same source.

For experiment [10], the target named is SUMO1 (SMT3 suppressor of mif two 3 homolog 1) (human (endogenous in SH-SY5Y)) (UniProt P63165). Described as above.
Experiment [11] concerns the target T2, four and a half LIM domains 2 (human (endogenous in SH-SY5Y)). The description is as above. The source holds these as a separate data set.

Turning to “androgen receptor (from UniProt P10275 1-920)”, the binding result in experiment [1] is given as “binds”; in [2], “binds”; in experiment [3] it was “binds weakly”.

“estrogen receptor alpha (from UniProt P03372 1-595)”: the binding entry in experiment [4], in experiment [5], in [1] and in experiment [3] was “binds” each time.

B1: retinoic acid receptor-related orphan receptor alpha (protein, UniProt P35398 1-523)
chain: MESAPAAPDPAASEPGSSGADAAAGSRETPLNQESARKSEPPAPVRRQSYSSTSRGISVTKKTHTSQIEIIPCKICGDKSSGIHYGVITCEGCKGFFRRSQQSNATYSCPRQKNCLIDRTSRNRCQHCRLQKCLAVGMSRDAVKFGRMSKKQRDSLYAEVQKHRMQQQQRDHQQQPGEAEPLTPTYNISANGLTELHDDLSNYIDGHTPEGSKADSAVSSFYLDIQPSPDQSGLDINGIKPEPICDYTPASGFFPYCSFTNGETSPTVSMAELEHLAQNISKSHLETCQYLREELQQITWQTFLQEEIENYQNKQREVMWQLCAIKITEAIQYVVEFAKRIDGFMELCQNDQIVLLKAGSLEVVFIRMCRAFDSQNNTVYFDGKYASPDVFKSLGCEDFISFVFEFGKSLCSMHLTEDEIALFSAFVLMSADRSWLQEKVKIEKLQQKIQLALQHVLQKNHREDGILTKLICKVSTLRALCGRHTEKLMAFKAIYPDIVRLHFPPLYKELFTSEFEPAMQIDG
As to B1, the binding entry is “binds” in [6]; “no binding” in [7]; “no binding” in [8]; “binds” in experiment [9]; “no binding” in experiment [10]; “no binding” in experiment [11].
